Results reported in publication PMC4336329 (PLoS ONE, 2015).
Among all 310,000 compounds or so, about 14,000 (4.5%) showed an effect of 50% or more. Effects have a minus sign here. This is one part of the list.

target: human ether-à-go-go-related gene (hERG) potassium channel (human, UniProt Q12809); assay: primary screen, population patch clamp on CHO cells stably expressing hERG
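Also: peak tail current of the secondary pulse compared with the same well before compound.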

Chain of human ether-à-go-go-related gene (hERG) potassium channel (Q12809 whole entry, looked up): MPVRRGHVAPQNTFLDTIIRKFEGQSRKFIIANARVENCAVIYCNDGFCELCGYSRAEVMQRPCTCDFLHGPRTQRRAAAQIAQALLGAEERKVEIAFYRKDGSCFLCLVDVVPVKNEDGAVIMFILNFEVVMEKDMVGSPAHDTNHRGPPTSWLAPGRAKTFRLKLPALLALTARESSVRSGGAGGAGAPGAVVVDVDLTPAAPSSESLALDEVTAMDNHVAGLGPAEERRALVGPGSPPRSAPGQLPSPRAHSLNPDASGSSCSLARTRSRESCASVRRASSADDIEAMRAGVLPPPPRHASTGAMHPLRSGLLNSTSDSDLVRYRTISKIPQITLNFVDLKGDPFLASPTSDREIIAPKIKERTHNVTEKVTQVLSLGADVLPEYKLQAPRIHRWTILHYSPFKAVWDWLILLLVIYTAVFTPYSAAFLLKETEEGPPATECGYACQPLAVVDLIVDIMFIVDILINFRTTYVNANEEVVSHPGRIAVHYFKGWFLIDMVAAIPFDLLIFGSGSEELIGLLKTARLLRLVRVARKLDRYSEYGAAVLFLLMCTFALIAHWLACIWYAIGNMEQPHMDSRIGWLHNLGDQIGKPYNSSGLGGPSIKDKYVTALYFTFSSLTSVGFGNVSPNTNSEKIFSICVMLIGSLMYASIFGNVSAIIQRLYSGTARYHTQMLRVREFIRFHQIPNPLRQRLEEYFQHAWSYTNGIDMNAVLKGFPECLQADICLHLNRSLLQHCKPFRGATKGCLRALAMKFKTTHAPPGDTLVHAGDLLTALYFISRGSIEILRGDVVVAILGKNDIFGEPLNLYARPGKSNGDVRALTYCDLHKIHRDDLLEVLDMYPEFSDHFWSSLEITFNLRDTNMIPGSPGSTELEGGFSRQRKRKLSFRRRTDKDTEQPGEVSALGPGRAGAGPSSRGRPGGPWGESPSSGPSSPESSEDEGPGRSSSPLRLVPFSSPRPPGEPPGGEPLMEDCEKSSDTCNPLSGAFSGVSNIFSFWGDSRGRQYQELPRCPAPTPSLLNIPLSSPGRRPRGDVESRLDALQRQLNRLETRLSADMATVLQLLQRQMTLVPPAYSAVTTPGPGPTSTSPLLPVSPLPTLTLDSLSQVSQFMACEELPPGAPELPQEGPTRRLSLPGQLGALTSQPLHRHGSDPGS

| SMILES | hERG current change (%, negative = inhibition) at 10uM |
| --- | --- |
| Cc1ccccc1NC(=S)NCc1ccc(Cl)cc1 | 0.313% |
| COc1ccc(CCN2C(=O)C(O)=C(C(=O)c3ccco3)C2c2cccs2)cc1OC (stereo not drawn) | 21.8% |
| O=c1[nH]nc(-c2ccc(F)cc2)cc1Cc1ccccn1 | 2.44% |
| COc1ccc(N2CCN(C(=O)CN3C(=O)NC(C)(C4CC4)C3=O)CC2)cc1 (stereo not drawn) | -0.997% |
| CN1CCC2(O)OCCCC2C1 (stereo not drawn) | 25.9% |
| Cc1ccccc1OCCN(C#N)c1nc(N(C)C)nc(N(C)C)n1 | -7.31% |
| CCN(CC)S(=O)(=O)c1cccc(NC(=O)c2cc3ccccc3o2)c1 | -14.8% |
| COC(=O)C1=NN(C(=O)c2ccccc2)C(O)(c2ccc([N+](=O)[O-])cc2)C1 (stereo not drawn) | -20.2% |
| Cc1cc(C)nc(SCC(=O)O)n1 | 17.7% |
| O=C(O)/C=C/C(=O)Nc1ccc(-c2ccccc2)cc1 | 2.01% |
| CNC(=O)C1CCN(S(=O)(=O)c2c(C)noc2/C=C/c2cccc(C)c2)CC1 | 10.2% |
| Cc1cc(C=C2C(=O)c3ccccc3C2=O)c(C)n1C | 7.4% |
| Cc1ccc2oc(-c3cccc(NC(=O)c4cc(-n5cnnc5)ccc4Cl)c3)nc2c1 | 10.7% |
| Br.NC1=NN=C(c2ccc3c(c2)OCCO3)CS1 | 21.3% |
| COc1ccc(-n2cnc3cc(NS(=O)(=O)c4ccc(C)cc4)ccc32)cc1 | -22.2% |
| Cc1ccc(N/C=C/c2onc(C)c2[N+](=O)[O-])cc1 | 4.09% |
| O=C(Cn1c(=O)c(C(F)(F)F)nc2ccccc21)N1CCC2(CC1)OCCO2 | 1.18% |
| CCCOc1ccc(CSc2nnc(CCC)n2N)cc1 | 6.5% |
| Cn1c(C(=O)NCc2cccnc2)cc2sccc21 | -10.2% |
| CC(Oc1cccc(Cl)c1)C(=O)Nc1ccc(S(=O)(=O)Nc2ncccn2)cc1 (stereo not drawn) | 9.35% |
| CC(C)N1CCN(S(=O)(=O)c2ccc3ccccc3c2)CC1.O=C(O)C(=O)O | 21.4% |
| Cn1cc(C(=O)NCCN2CCN(c3cccc(Cl)c3)CC2)c2c3ccccc3n(C)c2c1=O | -19.2% |
| CCc1ccc(C(=O)COC(=O)c2ccc(Cl)nc2)cc1 | 14% |

| SMILES | hERG current change (%, negative = inhibition) at 10uM |
| --- | --- |
| O=[N+]([O-])c1cc(C(F)(F)F)cc([N+](=O)[O-])c1NN=C1CCCCC1 | 0.0396% |
| CCCCCOc1ccc(C(=O)NCCC(=O)NCCCC(=O)OCC)cc1 | -5.05% |
| CCOc1ccc(N2C(=O)S/C(=C\c3cc(OC)c(OC)c(OC)c3)C2=O)cc1 | 12% |
| CCOc1ccc(C(=O)NC(=S)N2CCN(c3ccc(C(F)(F)F)cc3[N+](=O)[O-])CC2)cc1 | -30.5% |
| COCCn1c(=NC(=O)c2ccc(S(=O)(=O)N3CCOCC3)cc2)sc2cc(S(N)(=O)=O)ccc21 | -10.2% |
| COc1ccc(NC(=S)Nc2ccc(OCc3ccccc3)cc2)c(OC)c1 | 26.8% |
| O=C(NCc1ccco1)c1cc(-c2ccncc2)nc2ccccc12 | -18.5% |
| CC(=O)c1sc2nc(SCC(=O)N3CCCCC3)[nH]c(=O)c2c1C | 9.3% |
| O=C(CN1C(=O)COc2ccc(S(=O)(=O)N3CCCC3)cc21)NC1CCCCCCC1 | 7.14% |
| Cc1cc(SCC(=O)Nc2c(C)n(C)n(-c3ccccc3)c2=O)nc2ccccc12 | -38.7% |
| COC(=O)c1c(NC(=O)CC2SCC(C(=O)OC)NC2=O)sc2c1CCCC2 (stereo not drawn) | -5% |
| CCCN(CCC)C(=S)NC(=O)c1ccc(-c2ccccc2)cc1 | -13% |
| CN(CC(=O)Nc1ccc(F)c(F)c1F)c1cnccn1 | -5.08% |
| CC(=O)Nc1ccc(C(=O)OCC(=O)Nc2c(F)cccc2F)cc1 | -4.41% |
| COCCOc1ccc(C(F)(F)F)cc1NC(=O)c1ccccc1F | 3.36% |
| Cc1ccc(NC(=O)/C=C\C(=O)NCC(=O)O)cc1C | 4.2% |
| CC1(C)CC(=O)C(Sc2ccccc2[N+](=O)[O-])=C(O)C1 | 4.99% |
| O=C(O)c1cccc(NC(=O)C2CCCO2)c1 (stereo not drawn) | 21.8% |
| O=C(Nc1cc2c3c(c1)CC(=O)N3CCC2)c1ccccc1Br | 0.0128% |
| Cc1n(Cc2ccccc2)c2cc([N+](=O)[O-])ccc2[n+]1Cc1ccccc1.[Cl-] | 21.3% |
| CCS(=O)(=O)N1CCN(C2CCC(C)CC2)CC1.O=C(O)C(=O)O (stereo not drawn) | -0.633% |
| CCN1CCN(Cc2c(C(=O)N/N=C(\C)c3ccc(Cl)cc3)nnn2-c2nonc2N)CC1.Cl | 1.12% |
